From PMC2270309

Experiments:
[1] = target: Mad2^WT (wild-type human Mad2, untagged) (human) (UniProt Q13257); assay: SEC; gel filtration of the high-salt peak (Q2) of anion exchange chromatography (holds the C-Mad2 conformer)
[2] = target: Mad2^WT (wild-type human Mad2, untagged) (human) (UniProt Q13257); assay: SEC; untagged 13C-labelled O-Mad2 incubated with buffer for 30 min at 37 °C, then gel filtration at 4 °C; fractions on Coomassie-stained SDS-PAGE

stoichiometry N [1]: 2
percent of Mad2 that formed dimers [2]: 40%
Substance: Mad2^WT (wild-type human Mad2, untagged) (a stretch of the chain, sequence not shown) (natural protein; other documents disagree on this pair)
